{"source": "PubChem BioAssay AID488969", "about": "(Vanderbilt High Throughput Screening Facility, 2010)", "note": "The full ranking holds about 110,000 compounds; the median of “z-score” is about -0.1, and the highest 2% start at about 2. This is one part of the list."}
{"molecular_target": "Metabotropic glutamate receptor 8 (Rattus norvegicus) (UniProt P70579)", "sequence (P70579 whole entry, looked up)": "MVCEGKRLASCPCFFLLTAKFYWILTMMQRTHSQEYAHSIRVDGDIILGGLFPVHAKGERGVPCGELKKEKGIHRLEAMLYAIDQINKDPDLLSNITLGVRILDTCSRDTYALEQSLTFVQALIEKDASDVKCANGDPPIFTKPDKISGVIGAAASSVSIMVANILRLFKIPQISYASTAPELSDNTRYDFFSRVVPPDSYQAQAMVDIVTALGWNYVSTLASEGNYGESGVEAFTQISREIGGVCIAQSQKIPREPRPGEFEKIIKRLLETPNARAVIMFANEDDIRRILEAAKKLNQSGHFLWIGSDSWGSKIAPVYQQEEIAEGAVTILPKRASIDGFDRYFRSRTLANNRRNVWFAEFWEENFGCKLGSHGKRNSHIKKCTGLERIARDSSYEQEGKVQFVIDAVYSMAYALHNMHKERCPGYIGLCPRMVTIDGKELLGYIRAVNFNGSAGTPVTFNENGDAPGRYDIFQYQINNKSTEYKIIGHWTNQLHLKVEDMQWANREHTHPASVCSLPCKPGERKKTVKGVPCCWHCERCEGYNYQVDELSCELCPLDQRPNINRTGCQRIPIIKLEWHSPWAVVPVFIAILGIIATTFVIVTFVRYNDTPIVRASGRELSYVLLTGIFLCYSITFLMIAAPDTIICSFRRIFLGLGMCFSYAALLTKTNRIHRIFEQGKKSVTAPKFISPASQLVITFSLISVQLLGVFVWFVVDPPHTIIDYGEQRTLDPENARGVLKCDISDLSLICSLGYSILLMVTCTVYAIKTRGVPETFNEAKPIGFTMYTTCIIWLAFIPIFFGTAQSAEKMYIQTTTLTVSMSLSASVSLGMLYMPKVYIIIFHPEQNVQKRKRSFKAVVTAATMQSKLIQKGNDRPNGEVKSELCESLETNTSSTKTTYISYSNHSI", "assay": "mGluR8 Gi/Go-coupled signaling modulation – cell-based, rat, thallium flux, HTS, primary screen (AID 488969)", "settings": "HEK293 rat mGluR8, GIRK (G protein-gated inwardly rectifying potassium channel) thallium flux, FluoZin2; at 10 µM; stronger effect = higher value; submaximal glutamate (EC20) added with thallium"}
{"smiles": "COCCSc1nnc(NS(=O)(=O)Cc2ccccc2)s1", "z-score": -0.311}
{"smiles": "C=C(C)COc1ccc(-c2nc(N)ncc2-c2ccc(OC)cc2)c(O)c1", "z-score": -1.06}
{"smiles": "COc1ccc(Cc2nnn(CC(=O)O)n2)cc1", "z-score": 0.459}
{"smiles": "CCn1c(O)c(C(C#N)=C2N=c3ccccc3=N2)c2ccccc21", "z-score": -0.126}
{"smiles": "CCOC(=O)c1cc(NC(=O)c2ccc(C)cc2)c(=O)oc1-c1ccccc1", "z-score": 0.203}
{"smiles": "O=C(NC1CCCCC1)C(c1ccc2ncccc2c1)N(Cc1ccc2c(c1)OCO2)C(=O)c1ccc2c(c1)OCCO2", "note": "(stereo not drawn)", "z-score": -0.394}
{"smiles": "C/C(=N\\NC(=O)CC(C)C)c1ccc(Cl)c(Cl)c1", "z-score": -0.0256}
{"smiles": "Cc1cc(C(=O)O)cc(S(=O)(=O)N2CCOCC2)c1C", "z-score": -0.609}
{"smiles": "O=C(N/N=C/c1cccc(O)c1)c1csc2ccccc12", "z-score": -0.869}
{"smiles": "O=S(=O)(c1ccc(F)cc1)N1CCN(c2nc(-c3ccc(F)cc3)cs2)CC1", "z-score": 0.31}
{"smiles": "CCN1CCN(C(=O)Nc2cccc(C(F)(F)F)c2)CC1", "z-score": -0.25}
{"smiles": "O=C(O)c1cccc(Nc2nc(N3CCOCC3)nc(N3CCOCC3)n2)c1", "z-score": -0.785}
{"smiles": "Cc1[nH]c2ccccc2c1SCC(=O)N1CCCc2ccccc21", "z-score": 0.0673}
{"smiles": "C=CCOC(=O)c1c(C)nc2cc3c(cc2c1C)OCO3", "z-score": 0.0676}
{"smiles": "O=C(Cn1[nH]c(=O)c2ccccc2c1=O)N1CC=C(c2ccccc2)CC1", "z-score": -0.326}
{"smiles": "Cc1ccc(-c2noc(CCCOc3ccc(Cl)cc3Cl)n2)cc1", "z-score": -0.0645}
{"smiles": "Cc1cc(C(=O)OCc2nc3ccccc3s2)c(C)o1", "z-score": -0.0566}
{"smiles": "Cn1c(=O)[nH]c(=O)c2c1nc(NCCCn1ccnc1)n2Cc1ccccc1", "z-score": -0.0863}
{"smiles": "CCCOC(=O)c1ccc(-c2c(C)noc2-c2ccc(OC)cc2O)o1", "z-score": -2.4}
{"smiles": "COc1cc(NC(=O)COC(C)=O)c(C)cc1[N+](=O)[O-]", "z-score": -0.358}
{"smiles": "CCC1(c2ccc(F)cc2)NC(=O)N(CC(=O)N2CCOCC2)C1=O", "note": "(stereo not drawn)", "z-score": 0.349}
{"smiles": "CCn1c(SCC(=O)c2ccc(F)cc2)nnc1-c1ccoc1C", "z-score": 0.0998}
{"smiles": "CCOC(=O)C1NN=C(C(=O)c2ccccc2)C1c1ccccc1", "note": "(stereo not drawn)", "z-score": -0.653}
{"smiles": "Cc1ccc(/C=N/NC(=O)C(NC(=O)c2ccccc2)c2n[nH]c(=O)c3ccccc23)cc1", "note": "(stereo not drawn)", "z-score": -0.13}
{"smiles": "CC(=O)OCc1c(C(F)(F)F)nn(C)c1Oc1cccc(C(F)(F)F)c1", "z-score": -0.142}
{"smiles": "CCCCn1c(=O)n(CC(=O)Nc2c(CC)cccc2CC)c(=O)c2c1nc(CO)n2CCC", "z-score": -0.584}
{"smiles": "COc1ccc(S(=O)(=O)N(C)CC(=O)N2CCC(C(N)=O)CC2)cc1", "z-score": 0.0352}
{"smiles": "O=C(Nc1cccc(-c2cnc3ccccc3n2)c1)c1ccc(Cl)cc1", "z-score": -0.669}
{"smiles": "CC1CCCN(c2nc3c(c(=O)n(C)c(=O)n3C)n2CCSc2nc3ccccc3o2)C1", "note": "(stereo not drawn)", "z-score": -1.37}
{"smiles": "C=C(C)CNC(=S)NNC(=O)c1ccco1", "z-score": -0.224}
{"smiles": "CCOC(=O)N1CCC(NS(=O)(=O)c2ccc3c(c2)oc(=O)n3C)CC1", "z-score": 0.489}
{"smiles": "CS(=O)(=O)N1CCc2cc(-c3csc(NC(=O)Cc4ccccc4)n3)ccc21", "z-score": -0.204}
{"smiles": "COc1ccccc1N1CCN(C(=O)c2cc3c(=O)n(C)c4ccccc4c3n2C)CC1", "z-score": -1.66}
{"smiles": "COc1ccccc1N(CC(=O)Nc1c(C)cccc1C)S(C)(=O)=O", "z-score": 0.145}
{"smiles": "CCN(CC)S(=O)(=O)c1cccc(C(=O)NCC(=O)OCC(=O)NCc2ccccc2)c1", "z-score": -1.17}
{"smiles": "O=C(NCCc1nc2ccccc2[nH]1)c1cc([N+](=O)[O-])cc([N+](=O)[O-])c1", "z-score": -0.332}
{"smiles": "Nc1cc(N2CCCCC2)c(Cl)cc1[N+](=O)[O-]", "z-score": -0.394}
{"smiles": "O=C(CSc1nnnn1-c1ccccc1)Nc1ccc(Cl)cn1", "z-score": 1.07}
{"smiles": "CCOC(=O)c1sc(=S)n(-c2ccccc2)c1N", "z-score": -0.000963}
{"smiles": "CCOC(=O)C1CCCN(c2c(NCC3CCCO3)c(=O)c2=O)C1", "note": "(stereo not drawn)", "z-score": -0.374}
{"smiles": "NS(=O)(=O)c1ccc(CCNC2CC(=O)N(Cc3ccccc3)C2=O)cc1", "note": "(stereo not drawn)", "z-score": -1.4}
{"smiles": "CCN1CCN(c2ccc([N+](=O)[O-])cc2C(=O)c2ccc(Cl)cc2)CC1", "z-score": 0.0106}
{"smiles": "Cc1cccc(NC(=O)Cn2cnc3c(oc4nc5c(cc43)COC(C)(C)C5)c2=O)c1", "z-score": -0.0825}
{"smiles": "Cc1snc(S(=O)(=O)/C(C#N)=N/Nc2cccc(C(F)(F)F)c2)c1C#N", "z-score": -0.268}
{"smiles": "CCOC(=O)c1cc2c(C)nn(-c3ccccc3)c2s1", "z-score": -0.0733}
{"smiles": "COc1ccc(NC(=O)CSc2nnc(-c3cccs3)n2Cc2ccco2)cc1OC", "z-score": -0.682}
{"smiles": "CCCCC(=O)Nc1ccc(C(=O)NN2C(=O)c3ccccc3C2=O)cc1", "z-score": -0.164}
{"smiles": "N#Cc1ccccc1Sc1ccccc1N", "z-score": -0.17}
{"smiles": "CCC(C)(C)n1nnnc1CN(Cc1cc2cc(OC)c(OC)cc2[nH]c1=O)C1CCCC1", "z-score": -1.45}
{"smiles": "COc1ccc(-c2nc(N)n(C(=O)c3ccc(C)cc3)n2)cc1", "z-score": 0.106}
{"smiles": "CCOCCCNC(=O)NC12CC3CC(CC(C3)C1)C2", "z-score": 0.179}
{"smiles": "O=C(c1ccccc1)c1nn(-c2ccc(Cl)cc2)c(=O)cc1C(F)(F)F", "z-score": -0.239}
{"smiles": "COc1cc(C)nc(Oc2ccc(OCc3ccccc3)nn2)n1", "z-score": -0.107}
{"smiles": "CCOC(=O)CCC(NC(=O)CCCCCCCC(=O)NC(CCC(=O)OCC)C(=O)OCC)C(=O)OCC", "note": "(stereo not drawn)", "z-score": -0.356}
{"smiles": "O=C(CSc1nnc(-c2ccco2)n1Cc1ccco1)NCc1ccccc1", "z-score": -0.817}
{"smiles": "CCn1c(CNC(=O)c2cccs2)nnc1SCC(=O)NCCc1ccccc1", "z-score": -0.143}
{"smiles": "CCN1CCc2c(C#N)c(N3CCCCC3)nc(N3CCOCC3)c2C1", "z-score": -0.819}
{"smiles": "CC(C)c1nc(Cl)c(C#N)c2c1CCCC2", "z-score": -0.406}
{"smiles": "c1ccc2c(c1)Sc1ccccc1-n1cnnc1-2", "z-score": -0.821}
{"smiles": "CC(C)C(=O)Nc1cc(C(F)(F)F)ccc1N1CCOCC1", "z-score": -0.651}
{"smiles": "Cc1ccc(-c2nnc(Nc3ccc4c(c3)OCO4)c3ccccc23)cc1S(N)(=O)=O", "z-score": -0.547}
{"smiles": "CCc1ccc(NC(=O)C(C)OC(=O)c2ccc(N3CCCC3)c([N+](=O)[O-])c2)cc1", "note": "(stereo not drawn)", "z-score": -0.0246}
{"smiles": "CC(C)Oc1ccc(C(=O)NC(C)(C)CO)cc1", "z-score": 0.163}
{"smiles": "CCC(C)NC(=O)Cn1c(=O)n(CCCC(=O)NCc2ccccc2Cl)c(=O)c2ccccc21", "note": "(stereo not drawn)", "z-score": 0.357}
{"smiles": "c1ccc(-n2ncc3c2ncn2cnnc32)cc1", "z-score": 0.0868}
{"smiles": "N#Cc1c(N)n(CCOC(=O)c2ccc(Cl)cc2)c2nc3ccccc3nc12", "z-score": 0.48}
{"smiles": "Cc1cc(NC(=O)c2ccc3nc(-c4ccccc4)c(-c4ccccc4)nc3c2)no1", "z-score": 0.511}
{"smiles": "CCOC(=O)c1c(C)n(CC)c2ccc(OC(=O)c3ccc([N+](=O)[O-])cc3)cc12", "z-score": -0.0971}
